In US9187421B2, “Etomidate analogues that do not inhibit adrenocortical steroid synthesis” (THE GENERAL HOSPITAL CORPORATION, priority 2009, dated 2015):

System: cortisol synthesis by H295R adrenocortical cells
Settings: read-out: half-maximal inhibitory concentration (IC50) for cortisol synthesis, forskolin-stimulated, 48 h

**Q.** For “(R)-1-(1-phenylethyl)-1H-pyrrole-2-carboxylate [carboetomidate]”, which IC50 is on record?
**A.** Its IC50 is 2600 ± 1500 nM.
